Assay results from the supplement of paper PMC4604168 (melanoma cell lines).
The list shows a part of the results. Repeats are few or missing, and single values can be far off.

The compounds below were run on MZ2-MEL (assay: cell count relative to DMSO control; melanoma cells; higher = more viable cells). Conditions: library dose: standard library concentration; 72 h.
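Further: cells treated in 1,536-well plates, then fixed and DAPI-stained, with nuclei counted from automated high-throughput microscope images.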

SMILES | cell count [%]
CC1(C)NC(=O)N(c2ccc([N+](=O)[O-])c(C(F)(F)F)c2)C1=O [nilutamide] + Oc1cc(-c2nc(-c3ccccc3)[nH]c2-c2ccncc2)ccc1Cl [L779450] (first compound 5 µM, partner dose 1 µM) | 91.7
O=C(O)c1ccc(-c2c[nH]c3ncc(-c4ccccc4)cc23)cc1C1CCCC1 + O=C1NC(=O)/C(=C/c2ccc(-c3ccc(F)cc3O)o2)S1 [AS252424] (first compound 0.8 µM, partner dose 5 µM) | 79.5
O=C(Nc1cccc(Cl)c1)Nc1ncc(CCNc2ncnc3ccsc23)s1 + CN(C)S(=O)(=O)c1ccc2c(c1)/C(=C/c1cc3c([nH]1)CCCC3)C(=O)N2 [SU6656] (first compound 0.004 µM, partner dose 2 µM) | 65.7
O=c1[nH]nc(Sc2ncc([N+](=O)[O-])s2)n1-c1ccc2c(c1)OCCO2 + O=C(/C=C/c1cccnc1)NCCCCC1CCN(C(=O)c2ccccc2)CC1 [FK866] (first compound 1 µM, partner dose 0.05 µM) | 39.3
O=C(O)c1ccc(-c2c[nH]c3ncc(-c4ccccc4)cc23)cc1C1CCCC1 + CC(C)CCN1c2nc(Nc3cc(F)c(O)c(F)c3)ncc2N(C)C(=O)C1C [BID1870] (first compound 0.8 µM, partner dose 1 µM) | 91.5
O=C(O)c1ccc(-c2c[nH]c3ncc(-c4ccccc4)cc23)cc1C1CCCC1 + COc1cc2ncnc(Nc3ccc(Oc4ccccc4)cc3)c2cc1OC [SrcI1] (first compound 0.8 µM, partner dose 10 µM) | 75.3
